The supplement of paper PMC3334620
Over roughly 33,000 sequences, “E-score (-0.5 to 0.5)” has its median near -0.054; the highest 2% begin near 0.35. The list shows a part of the results.

biological target: T1, Stb5 (UniProt P38699); test: PBM E-score (8-mer binding enrichment) (E-score (-0.5 to 0.5)); higher = stronger / more preferred TF binding; most listed sequences are background and not binding sites; conditions: protein concentration: 200 nM; construct: GST-full length
T1 sequence: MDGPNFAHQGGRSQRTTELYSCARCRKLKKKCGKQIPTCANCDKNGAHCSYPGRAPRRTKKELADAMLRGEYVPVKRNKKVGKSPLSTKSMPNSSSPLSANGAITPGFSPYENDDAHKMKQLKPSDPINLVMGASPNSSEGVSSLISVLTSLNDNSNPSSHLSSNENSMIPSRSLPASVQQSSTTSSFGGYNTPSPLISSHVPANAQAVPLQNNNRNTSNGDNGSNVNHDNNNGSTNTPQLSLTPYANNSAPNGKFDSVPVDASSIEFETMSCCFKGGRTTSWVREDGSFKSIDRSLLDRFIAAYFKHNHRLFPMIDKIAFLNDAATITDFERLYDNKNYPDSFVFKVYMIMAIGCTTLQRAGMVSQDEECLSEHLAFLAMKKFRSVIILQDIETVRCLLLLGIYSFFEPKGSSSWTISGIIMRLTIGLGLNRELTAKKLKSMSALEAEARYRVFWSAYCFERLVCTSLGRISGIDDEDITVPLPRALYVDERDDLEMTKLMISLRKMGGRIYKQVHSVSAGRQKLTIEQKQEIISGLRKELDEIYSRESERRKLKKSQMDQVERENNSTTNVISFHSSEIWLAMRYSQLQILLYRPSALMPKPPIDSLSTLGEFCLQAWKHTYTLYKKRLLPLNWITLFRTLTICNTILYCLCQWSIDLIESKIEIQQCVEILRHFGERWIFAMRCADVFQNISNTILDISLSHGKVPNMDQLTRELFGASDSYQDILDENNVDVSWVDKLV
How it was run: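 Each ungapped eight-base word and its reverse complement, pooled, received an E-score from the Universal PBM Analysis Suite. Underlying scans, normalised with masliner, recorded fluorescent anti-GST bound to GST-tagged yeast transcription factors. These were applied at about 100-200 nM to universal all-10-mer Agilent arrays double-stranded by primer extension.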

Sequence	PBM E-score
AGACCACG	-0.196
AAACAAGA	-0.232
AGGACTTC	-0.196
CTCAGCTC	-0.141
CCTCCCTA	-0.227
GATGGAGA	0.0972
GAGGAAGC	-0.152
ATGACAGC	-0.138
ACGGGGCC	0.221
CTCGATCC	-0.0217
CTTTAAGC	0.0877
CTCTACCC	-0.316
AAGATCTC	-0.157
GGGAACAC	0.0338
AATACTAG	-0.111
CGACCAAC	-0.0601
AGACACCG	0.436
ACCCATGC	-0.221
TCATCAGA	-0.111
GGTGGTAC	0.261
AACCAACG	-0.0974
TATTTCGA	0.17
AACGGAGC	0.242
CCCCGTAC	0.243
GGCTGCCA	0.026

Sequence	PBM E-score
CACACGTC	-0.101
AAGTCACT	-0.157
CAGATGTC	-0.00728
ACTCCCGG	0.271
AAAATTGC	0.149
ATGGTTCC	0.183
CAATGGTG	-0.187
CAACTTGC	-0.232
CGACCGAG	0.105
GTGGGAGA	-0.168
CATCGAGA	-0.206
AAAATGTC	0.0618
CGCGCACA	0.106
AGCTCTGG	-0.108
ACTCCGAC	0.425
ATGCTAAC	-0.0894
AGACCGCT	0.345
CCACCTAA	-0.0966
CTCAGAAG	-0.211
CATAACAA	-0.076
ACGGGTGG	-0.0144
TGATCAAA	-0.0246
ATAGTAAA	-0.159
CAACCCGG	0.0495
GAAATAGC	0.107

Sequence	PBM E-score
CCAGTCAC	0.153
CGTTACCC	-0.0513
CTGCGGCA	0.118
AACCGCCA	0.167
GACGTACA	-0.0556
GTTTCAGA	-0.0672
AGCGAGCC	-0.015
AGAGAGTC	-0.232
ACCCAAGA	-0.193
CCGTCGGC	0.377
ACCATTGG	-0.0637
ACTCCCTC	-0.143
ACTGACGG	0.259
GACGCATA	0.131
ACACACTC	-0.174
AACGCCTA	-0.103
CATGAATA	-0.189
AAGTGTGG	-0.0211
ATCACACA	-0.247
CATCGACA	-0.116
ACCCCGAG	0.351
CGGGAACG	0.251
AGTCCTCG	-0.314
AGGCCTGC	-0.089
GGAGCGGA	0.278

Sequence	PBM E-score
GTGGGCAA	-0.0612
AAGTCGCC	0.0466
CAGGCAAA	-0.145
CCTGGACC	-0.283
ACCCCACG	0.0991
ATCGGAAC	0.217
GCGCTAAC	0.111
CCAGAGCG	-0.033
ACGTCTAC	-0.198
AAATCCCC	0.336
AGCCTGAA	-0.0302
ATGCTCGC	-0.221
CTAACTAA	-0.127
AACTTGGC	-0.103
CCTGTATA	-0.0845
ACATTAAA	-0.122
CCTATTTC	0.192
CGTACTCC	0.0129
GAGACGTA	-0.227
TCTGAGCA	-0.254
ACCCTATC	-0.0371
ATTTGGAG	-0.11
CGACAGGA	0.175
AAGCTTAG	-0.11
ACCGATCG	0.32

Sequence	PBM E-score
AGTCATAT	-0.00205
GTCAGCCA	-0.35
ACACTACC	-0.0598
AGTGCTAA	-0.043
TACCTCCA	-0.0788
GCGCGGTA	0.29
AGGGATTG	-0.163
CAACAAGC	-0.0677
ATATAGGC	0.0115
ACCGAAAA	0.0944
GGGGCTAA	0.276
GGGTGCTA	0.0799
AACCTTAA	-0.108
AAAGTCTC	-0.145
GCAATTGC	0.0444
TGATTTAA	0.0984
CCACGTGA	0.088
ACAGCGAG	-0.0752
AACGTGGG	-0.0838
CAATGTTC	0.0981
AGCATCCG	0.0966
ATGCTCTG	-0.198
CCTCTCGA	-0.271
ACGGCGCC	0.196
GGATTGTA	-0.0877

Sequence	PBM E-score
ACCTACGT	0.0406
CAACCCTG	-0.293
CTACGAAG	-0.281
GGGACTTA	0.144
CATGCACA	-0.234
GCGCATGA	-0.113
ATCGCACA	-0.0532
CATATTGA	-0.264
AGCCCGGA	0.215
CATTGGAG	-0.0911
CAAACGCA	-0.142
CATCTAAC	0.0467
CGGGTGCA	0.181
GTAACTAA	0.064
CCCCTGCA	-0.169
GACATCAC	-0.00363
CAATGGCC	0.0847
CAGTGGGC	-0.161
AATGACTC	-0.235
AATGACAG	-0.356
GACTTGCC	-0.164
ACAAGAGA	-0.163
CTAGGCAA	-0.0267
ATACATTC	-0.228
CATCACGA	-0.252

Sequence	PBM E-score
CTCTGTCC	0.0188
CGTTAGAA	-0.00687
ACTTCCTA	-0.176
AGCGCGTC	-0.0918
ACACTAAA	-0.0418
GCAGCACC	0.0741
CTGGGTCC	0.0474
CCATGTCC	0.101
GGCCGCAA	0.112
CGAACGTA	-0.0671
AATGTCGT	-0.169
ACGGACCC	0.216
GCGAACCC	0.0806
AGAAAACT	-0.264
ACGTAAAT	-0.0679
AGAGACAC	-0.161
AGGGAGGA	-0.24
ACTGTGGA	-0.265
GATCCGCC	0.196
CGCCTGAC	0.0936
GTCGAGCA	-0.256
ATTCCCTG	-0.0534
